# From the supplement of paper PMC4967469
# A lower IC50 marks a more sensitive line; fits outside the tested doses are given as limits. AUC is the area under the same curve over the 256-fold range up to the top dose, as a fraction; the more sensitive the line, the further below 1. For some of these results: Where the top dose is marked as inferred, it was derived from the fitted curves, not read from the paper.
# Key:
# Experiment in all cases: Viability of human cancer cell lines after 72 h of drug (GDSC screen)
# I-BET-762 = compound: CCNC(=O)C[C@@H]1N=C(c2ccc(Cl)cc2)c2cc(OC)ccc2-n2c(C)nnc21 [I-BET-762]; settings: top dose 20 µM; top dose inferred
# Experimental: (§1)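 Human cancer cell lines in 384-well plates, medium with 10% serum, drug for 72 h over a 256-fold dose range (nine 2-fold or five 4-fold steps up to the top dose). Adherent lines were fixed and stained with the nucleic acid dye Syto60, suspension lines read with resazurin; signal relative to control wells, capped at 0 and 100%. One two-parameter sigmoid per drug and line, fitted in a mixed model over all curves with the slope shared within a line.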
# AV-951 = compound: COc1cc2nccc(Oc3ccc(NC(=O)Nc4cc(C)on4)c(Cl)c3)c2cc1OC [AV-951]; settings: top dose 0.128 µM; top dose inferred
# Experimental: as §1
# KIN001-244 = compound: O=C(NC(COc1ccc2[nH]c(=O)[nH]c2c1)c1ccccc1)c1cccn(Cc2ccc(F)c(F)c2)c1=O [KIN001-244]; settings: top dose 20 µM; top dose inferred
# Experimental: as §1
# PF-4708671 = compound: CCc1cncnc1N1CCN(Cc2nc3ccc(C(F)(F)F)cc3[nH]2)CC1 [PF-4708671]; settings: top dose 10 µM; top dose inferred
# Experimental: as §1
# CAL-101 = compound: CC[C@H](Nc1ncnc2[nH]cnc12)c1nc2cccc(F)c2c(=O)n1-c1ccccc1 [CAL-101]
# Experimental: as §1
Cell Line,AUC (CAL-101),IC50 (CAL-101),other results
"CHP-134 (neuroblastoma, suspension)",–,–,AUC (I-BET-762): 0.675; IC50 (I-BET-762): 4.44 µM; AUC (AV-951): 0.979; IC50 (AV-951): > 128 nM; AUC (KIN001-244): 0.915; IC50 (KIN001-244): > 20 µM
"COR-L303 (small cell lung carcinoma, suspension)",–,–,AUC (I-BET-762): 0.749; IC50 (I-BET-762): 6.31 µM; AUC (AV-951): 0.981; IC50 (AV-951): > 128 nM; AUC (KIN001-244): 0.876; IC50 (KIN001-244): 18.8 µM
"QGP-1 (pancreas, adherent)",–,–,AUC (I-BET-762): 0.689; IC50 (I-BET-762): 5.91 µM; AUC (PF-4708671): 0.979; IC50 (PF-4708671): > 10 µM; AUC (AV-951): 0.978; IC50 (AV-951): > 128 nM; AUC (KIN001-244): 0.872; IC50 (KIN001-244): > 20 µM
"SK-MEL-5 (melanoma, adherent)",–,–,AUC (I-BET-762): 0.983; IC50 (I-BET-762): > 20 µM; AUC (PF-4708671): 0.936; IC50 (PF-4708671): > 10 µM; AUC (AV-951): 0.982; IC50 (AV-951): > 128 nM; AUC (KIN001-244): 0.914; IC50 (KIN001-244): > 20 µM
"SNU-175 (large intestine, suspension)",–,–,AUC (I-BET-762): 0.589; IC50 (I-BET-762): 2.16 µM; AUC (AV-951): 0.981; IC50 (AV-951): > 128 nM; AUC (KIN001-244): 0.871; IC50 (KIN001-244): 16.8 µM
"TE-6 (oesophagus, adherent, top dose 20 µM)",0.963,> 20 µM,–
"TE-8 (oesophagus, adherent, top dose 20 µM)",0.96,> 20 µM,–
"TE-9 (oesophagus, adherent, top dose 20 µM)",0.984,> 20 µM,–
"TE-10 (oesophagus, adherent, top dose 20 µM)",0.972,> 20 µM,–
"TE-11 (oesophagus, adherent, top dose 20 µM)",0.986,> 20 µM,–
"TE-12 (oesophagus, suspension, top dose 20 µM)",0.935,> 20 µM,–
"TE-15 (oesophagus, suspension, top dose 20 µM)",0.933,> 20 µM,–
"TE-441-T (rhabdomyosarcoma, adherent, top dose 20 µM)",0.972,> 20 µM,–
"TGBC1TKB (biliary tract, adherent, top dose 20 µM)",0.988,> 20 µM,–
"TGBC11TKB (stomach, adherent, top dose 20 µM)",0.987,> 20 µM,–
"TGBC24TKB (biliary tract, adherent, top dose 20 µM)",0.98,> 20 µM,–
"TGW (neuroblastoma, adherent, top dose 20 µM)",0.959,> 20 µM,–
"TK10 (kidney, adherent, top dose 20 µM)",0.923,> 20 µM,–
"TK (B-cell lymphoma, suspension, top dose 20 µM)",0.93,> 20 µM,–
"TMK-1 (stomach, adherent, top dose 20 µM)",0.984,> 20 µM,–
"TOV-21G (ovary, adherent, top dose 20 µM)",0.803,11 µM,–

Cell Line,AUC (CAL-101),IC50 (CAL-101),other results
"TOV-112D (ovary, adherent, top dose 20 µM)",0.972,> 20 µM,–
"TT2609-C02 (thyroid, adherent, top dose 20 µM)",0.97,> 20 µM,–
"TT (thyroid, adherent, top dose 20 µM)",0.975,> 20 µM,–
"TUR (B-cell lymphoma, suspension, top dose 20 µM)",0.917,> 20 µM,–
"TYK-nu (ovary, adherent, top dose 20 µM)",0.984,> 20 µM,–
"U031 (kidney, adherent, top dose 20 µM)",0.905,> 20 µM,–
"U251 (glioma, adherent, top dose 20 µM)",0.925,> 20 µM,–
"U-2-OS (osteosarcoma, adherent, top dose 20 µM)",0.972,> 20 µM,–
"U-87-MG (glioma, adherent, top dose 20 µM)",0.93,> 20 µM,–
"U-118-MG (glioma, adherent, top dose 20 µM)",0.982,> 20 µM,–
"U-698-M (B-cell leukaemia, suspension, top dose 20 µM)",0.987,> 20 µM,–
"UACC-62 (melanoma, adherent, top dose 20 µM)",0.973,> 20 µM,–
"UACC-257 (melanoma, adherent, top dose 20 µM)",0.941,> 20 µM,–
"UACC-812 (breast, adherent, top dose 20 µM)",0.958,> 20 µM,–
"UACC-893 (breast, adherent, top dose 20 µM)",0.983,> 20 µM,–
"UM-UC-3 (bladder, adherent, top dose 20 µM)",0.908,> 20 µM,–
"UMC-11 (lung carcinoid, adherent, top dose 20 µM)",0.986,> 20 µM,–
"UWB1.289 (ovary, adherent, top dose 20 µM)",0.949,> 20 µM,–
"VA-ES-BJ (soft tissue, adherent, top dose 20 µM)",0.982,> 20 µM,–
"VAL (B-cell lymphoma, suspension, top dose 20 µM)",0.858,16.6 µM,–
"VCaP (prostate, adherent, top dose 20 µM)",0.954,> 20 µM,–

Cell Line,AUC (CAL-101),IC50 (CAL-101),other results
"VM-CUB-1 (bladder, adherent, top dose 20 µM)",0.988,> 20 µM,–
"VMRC-MELG (melanoma, adherent, top dose 20 µM)",0.985,> 20 µM,–
"VMRC-RCW (kidney, adherent, top dose 20 µM)",0.958,> 20 µM,–
"VMRC-RCZ (kidney, adherent, top dose 20 µM)",0.864,> 20 µM,–
"WIL2-NS (lymphoid neoplasm, suspension, top dose 20 µM)",0.74,5.15 µM,–
"WM35 (melanoma, adherent, top dose 20 µM)",0.936,> 20 µM,–
"WM278 (melanoma, adherent, top dose 20 µM)",0.952,> 20 µM,–
"WM793B (melanoma, adherent, top dose 20 µM)",0.94,> 20 µM,–
"WM1552C (melanoma, adherent, top dose 20 µM)",0.918,> 20 µM,–
"WM-115 (melanoma, adherent, top dose 20 µM)",0.836,17.7 µM,–
"WSU-DLCL2 (B-cell lymphoma, suspension, top dose 20 µM)",0.916,> 20 µM,–
"WSU-NHL (lymphoid neoplasm, suspension, top dose 20 µM)",0.971,> 20 µM,–
"YAPC (pancreas, adherent, top dose 20 µM)",0.975,> 20 µM,–
"YH-13 (glioma, adherent, top dose 20 µM)",0.933,> 20 µM,–
"YKG-1 (glioma, adherent, top dose 20 µM)",0.962,> 20 µM,–
"YMB-1-E (breast, adherent)",–,–,AUC (I-BET-762): 0.937; IC50 (I-BET-762): > 20 µM; AUC (AV-951): 0.976; IC50 (AV-951): > 128 nM; AUC (KIN001-244): 0.869; IC50 (KIN001-244): > 20 µM
"YMB-1-E (breast, adherent, top dose 20 µM)",0.858,> 20 µM,–
"YT (lymphoid neoplasm, suspension, top dose 20 µM)",0.362,0.553 µM,–
"huH-1 (liver, adherent, top dose 20 µM)",0.981,> 20 µM,–
"no-10 (glioma, adherent, top dose 20 µM)",0.943,> 20 µM,–
"no-11 (glioma, adherent, top dose 20 µM)",0.942,> 20 µM,–
